In PubChem BioAssay AID686978 (National Center for Advancing Translational Sciences (NCATS), 2013):
Among all 420,000 compounds or so, about 64,000 (15%) were called active. The inconclusive results got no clear call from the source; some entries with a clear call stand among them for comparison. Calls come from the whole dose curve; as a rule, active = well fitted inhibition curve with a large enough effect; inconclusive = small, poorly fitted or top-dose-only effect; inactive = flat fitted curve, though single readings scatter. No potency is given beside an inconclusive call; the fits are too rough.

Test: qHTS for Inhibitors of human tyrosyl-DNA phosphodiesterase 1 (TDP1): qHTS in cells in absence of CPT; note: nearly all actives have a fitted effect of over 55% in size
Conditions: DT40 Tdp1-/- hTDP1 cells, no CPT, ATP luminescence, 48 h; series mostly up to 46.2 µM
Summary of the method: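 DT40 Tdp1-/-;hTDP1 cells, no CPT (DMSO vehicle only), 400 cells/well; compounds pin-transferred; ≥48 hr, 37 °C; CellTiter-Glo 30 min RT dark, luminescence read.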
Potency is the fitted concentration of half-maximal effect; tags give direction and shape of the fitted curve.

For O=C(NCc1cccnc1)c1cc(C2CCCCN2S(=O)(=O)c2ccccc2)on1 (stereo not drawn), which Potency is on record?
Its Potency is inconclusive [inhibitor, single point].

For C(=N\N1CCN(C2c3ccccc3-c3ccccc32)CC1)/c1ccccn1, which Potency is on record?
Its Potency is active: 16.4 µM.

For COCCNc1ncnc2c1ncn2[C@H]1CN(Cc2ccc(-c3ccccc3)cc2)C[C@@H](CO)O1, which Potency is on record?
Its Potency is active: 20.6 µM.

Which Potency does the source give for COc1ccccc1/C=C/C(=O)NC(=S)Nc1ccc(S(=O)(=O)N(C)c2ccccc2)cc1 here?
Its Potency is active: 23.1 µM.

With O=C(N[C@H]1C/C=C\C(c2cccc(F)c2)N(Cc2ccccc2)C(=O)C1)OCC1c2ccccc2-c2ccccc21 (stereo partly drawn) as the molecule, how does the Potency read?
The Potency was active: 20.6 µM.

Which Potency does the source give for CCOC(=O)c1ccc2c(c1)nc(-c1ccc(F)cc1)c1nccn12 here?
The Potency was “inactive”.

For CN(C(=O)c1cccc(NC(=O)Cc2ccc(NC(=O)C3CCCN(S(=O)(=O)c4cccc([N+](=O)[O-])c4)C3)cc2)c1)C1CCCCC1 (stereo not drawn), which Potency is on record?
The Potency was inconclusive [inhibitor, single point].

Which Potency does the source give for CCCc1nc(SCc2ccc(OCC)cc2)n[nH]1 here?
Its Potency is inconclusive [inhibitor, partial curve].

For O=C1c2ccccc2C(=O)N1CCCCCCc1ccccc1, which Potency is on record?
The Potency was “inactive”.

For CCc1nc2ccccc2c(C(=O)OCC(=O)Nc2cccc(S(=O)(=O)N3CCOCC3)c2)c1C, which Potency is on record?
The Potency was active: 18.4 µM.

With CC(C)(C)C(=O)N1CCC(O)(CS(=O)(=O)c2ccc(Cl)c(Cl)c2)CC1 as the molecule, how does the Potency read?
The Potency was “inactive”.

For CSc1nnc(C(C)(C)C)c(=O)n1/N=C/c1ccc(C(C)C)cc1, which Potency is on record?
The Potency was inconclusive [inhibitor, partial curve, poor fit].

With COc1ccccc1C(=O)NCCn1cc(SCC(=O)Nc2cc(C)on2)c2ccccc21 as the molecule, how does the Potency read?
Its Potency is inconclusive [inhibitor, single point].

For Nc1cccc2nc3ccccc3cc12, which Potency is on record?
Its Potency is inconclusive [inhibitor, full curve, poor fit].

For CCS(=O)(=O)N1CCc2cc(C(=O)Nc3cccc(Cl)c3C)ccc21, which Potency is on record?
The Potency was inconclusive [inhibitor, partial curve, poor fit].

Which Potency does the source give for CCC(=O)N1c2nc(-c3ccco3)nn2C2(CCCCC2)[C@@H]2CCCC[C@@H]21 here?
Its Potency is inconclusive [inhibitor, partial curve].

With CCOC(=O)c1c(NC(=O)/C=C/c2ccc3c(c2)OCO3)sc(C)c1CC as the molecule, how does the Potency read?
Its Potency is inconclusive [inhibitor, single point].

With Cc1ccc(CSc2nc3cccnc3n2Cc2ccc(C(=O)NCCc3ccccc3)cc2)cc1 as the molecule, how does the Potency read?
The Potency was “inactive”.

For c1ccc(CNc2nc(CN3CCOCC3)nc3scc(-c4ccccc4)c23)cc1, which Potency is on record?
Its Potency is “inactive”.

For CC1CCCCC1NC(=S)NC(=O)c1ccccc1Br (stereo not drawn), which Potency is on record?
Its Potency is inconclusive [inhibitor, partial curve, poor fit].

For O=C(CN1C2=NCCN2c2ccccc21)C12CC3CC(CC(C3)C1)C2, which Potency is on record?
Its Potency is active: 16.4 µM.

With CCCC(=O)Nc1ccc2c(c1)C(=O)N(C)C[C@@H](OC)[C@H](C)CN(Cc1ccc(-c3ccccn3)cc1)[C@@H](C)CO2 as the molecule, how does the Potency read?
The Potency was active: 23.1 µM.

For COC(=O)[C@@]1(Cc2ccccc2)[C@H]2C(=O)N(Cc3ccccc3)C(=O)[C@H]2[C@H]2CN=C(SCc3ccc(C)cc3)N21, which Potency is on record?
Its Potency is inconclusive [inhibitor, single point].

With Cc1ccc(S(=O)(=O)N2CCN(c3nc(-n4cccn4)nc4ccccc34)CC2)cc1 as the molecule, how does the Potency read?
The Potency was inconclusive [inhibitor, single point].

For CN(C(=O)CSc1nnnn1-c1ccccc1)C1CCCCC1, which Potency is on record?
Its Potency is “inactive”.

For COc1ccc([C@H]2CC(=O)C[C@@H](CCn3cc(CCc4ccccc4)nn3)O2)cc1, which Potency is on record?
The Potency was inconclusive [inhibitor, single point].

With CCCc1ccc(C(C)NC(=O)c2cnccn2)cc1 (stereo not drawn) as the molecule, how does the Potency read?
The Potency was active: 23.1 µM.

With CCOc1c(Cl)cc(Cl)cc1CNCCSc1nnnn1C as the molecule, how does the Potency read?
The Potency was inconclusive [inhibitor, partial curve, poor fit].

For CCn1cc(S(=O)(=O)CC(=O)Nc2cccc(C)c2)c2ccccc21, which Potency is on record?
Its Potency is “inactive”.

With COc1ccc(N2CCN(C(CNC(=O)C(=O)NCCCN(C)C)c3cccnc3)CC2)cc1 (stereo not drawn) as the molecule, how does the Potency read?
The Potency was “inactive”.

For CN(C)CCCn1c(=S)[nH]c2ccccc2c1=O, which Potency is on record?
The Potency was “inactive”.

Which Potency does the source give for CCOc1ccc2nc(N3CCCC(C(=O)NCCCN4C(C)CCCC4C)C3)sc2c1 (stereo not drawn) here?
Its Potency is inconclusive [inhibitor, single point].

For COc1cc(C(=O)OCC#N)ccc1OCc1c(C)noc1C, which Potency is on record?
The Potency was active: 23.1 µM.

Which Potency does the source give for CC(C)c1nc(NCc2ccccc2)c(C#N)c2c1CCCC2 here?
Its Potency is inconclusive [inhibitor, single point].

For O=C(/C=C/c1ccc([N+](=O)[O-])cc1)N(c1ccccn1)C1CCCCC1, which Potency is on record?
Its Potency is inconclusive [inhibitor, single point].

For Cc1csc(NC(=O)CSc2ccccc2F)n1, which Potency is on record?
The Potency was inconclusive [inhibitor, partial curve, poor fit].

With COc1ccccc1NC(=O)c1cc(-c2ccc(C)o2)nc2ccccc12 as the molecule, how does the Potency read?
The Potency was inconclusive [inhibitor, partial curve, poor fit].

With O=C(O)C1CCCN1c1nc(-c2ccc(Cl)c(Cl)c2)cc(C(F)(F)F)n1 (stereo not drawn) as the molecule, how does the Potency read?
Its Potency is active: 20.6 µM.

Which Potency does the source give for CC(C)Cn1cnc2c(SCc3ccccc3Cl)nc(N)nc21 here?
The Potency was inconclusive [inhibitor, single point].

For Cc1c(C)n(C)c2ccc(C(=O)Nc3cccc4ccccc34)cc12, which Potency is on record?
The Potency was inconclusive [inhibitor, single point].

Which Potency does the source give for Cc1ccc(C2CC(c3ccccc3)=NN2c2ccc(S(N)(=O)=O)cc2)cc1 (stereo not drawn) here?
The Potency was inconclusive [inhibitor, single point].

With COc1ccc(Nc2nnc(Cc3ccc(Cl)cc3)c(=O)[nH]2)c(OC)c1 as the molecule, how does the Potency read?
Its Potency is inconclusive [inhibitor, single point].

With Cc1cc(C)nc(-n2nc(C)cc2NC(=O)CNCc2ccccc2)n1 as the molecule, how does the Potency read?
Its Potency is inconclusive [inhibitor, full curve].
